# Whole data set: some 2,900 compounds, median “NF-kB SEAP reporter activity, fold change vs agonist alone” near 0.99, cut for the highest 2% near 2.6. The list shows a part of the results.
# Columns and labels:
# RAW-Dual [1] = test: NF-kB SEAP reporter activity, fold change vs agonist alone; higher = enhanced NF-kB activity; details: cytotoxicity flag (confluency mask): not cytotoxic
# How it was run: (§1)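 Reporter activity is given as fold change relative to agonist-alone wells. To measure it, 50 nL of library stock was pin-tooled onto RAW-Dual macrophages (50,000 cells/well, DMEM, 384-well plates), a PRR agonist followed 1 h later, and cells stayed at 37 °C, 5% CO2. Twenty hours on, supernatant was assayed for IRF (QuantiLuc luminescence) and NF-κB (QuantiBlue, 620 nm absorbance), and wells under 70% of agonist-control IncuCyte confluency in both mask sets were marked cytotoxic.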
# RAW-Dual [2] = test: NF-kB SEAP reporter activity, fold change vs agonist alone; cytotoxicity flag (confluency mask): not cytotoxic; higher = enhanced NF-kB activity
# How it was run: as §1
# [3] = library stock concentration (final ~1000-fold dilution): 10 mM, agonist: Imiquimod (TLR7) […]
# [4] = library stock concentration (final ~1000-fold dilution): 10 mM, agonist: MPLA (TLR4) […]
# [5] = agonist: ODN 1826 (TLR9) 0.5 ug/mL
# [6] = agonist: Pam2CSK4 (TLR2/6) 0.1 ug/mL
# [7] = agonist: Pam3CSK4 (TLR2/1) 0.1 ug/mL
smiles,measurement,setting,value
Oc1ccc(-c2c(-c3ccccc3)nn3c(C(F)(F)F)cc(C(F)(F)F)nc23)cc1,NF-kB SEAP reporter activity,RAW-Dual [1]; [3],0.991
same,NF-kB SEAP reporter activity,RAW-Dual [1]; [4],1.07
Oc1ccc(-c2c(-c3ccccc3)nn3c(C(F)(F)F)cc(C(F)(F)F)nc23)cc1 (library stock concentration (final ~1000-fold dilution): 10 mM),NF-kB SEAP reporter activity,RAW-Dual [2]; agonist: LPS (TLR4) 0.1 ug/mL,0.501
same,NF-kB SEAP reporter activity,RAW-Dual [2]; [5],0.939
same,NF-kB SEAP reporter activity,RAW-Dual [2]; [6],0.635
same,NF-kB SEAP reporter activity,RAW-Dual [2]; [7],1.08
NC1CC1c1ccc(-c2cccc(O)c2)cc1 (configuration not stated) (library stock concentration (final ~1000-fold dilution): 10 mM),NF-kB SEAP reporter activity,RAW-Dual [2]; agonist: LPS (TLR4) 0.1 ug/mL,0.984
same,NF-kB SEAP reporter activity,RAW-Dual [2]; [5],0.763
same,NF-kB SEAP reporter activity,RAW-Dual [2]; [6],0.977
same,NF-kB SEAP reporter activity,RAW-Dual [2]; [7],1.1
NC1CC1c1ccc(-c2cccc(O)c2)cc1 (configuration not stated),NF-kB SEAP reporter activity,RAW-Dual [1]; [3],0.951
same,NF-kB SEAP reporter activity,RAW-Dual [1]; [4],1.02
CC1OC(OC2C(CO)OC(OCC3OC(OC(=O)[C@]45CC[C@@H](C)[C@H](C)[C@H]4C4=CCC6[C@@]7(C)C[C@@H](O)[C@@H](O)[C@@](C)(CO)C7CC[C@@]6(C)[C@]4(C)CC5)C(O)C(O)C3O)C(O)C2O)C(O)C(O)C1O (some centres not stated) (library stock concentration (final ~1000-fold dilution): 10 mM),NF-kB SEAP reporter activity,RAW-Dual [2]; agonist: LPS (TLR4) 0.1 ug/mL,1.08
same,NF-kB SEAP reporter activity,RAW-Dual [2]; [5],0.915
same,NF-kB SEAP reporter activity,RAW-Dual [2]; [6],1.06
same,NF-kB SEAP reporter activity,RAW-Dual [2]; [7],1.1
CC1OC(OC2C(CO)OC(OCC3OC(OC(=O)[C@]45CC[C@@H](C)[C@H](C)[C@H]4C4=CCC6[C@@]7(C)C[C@@H](O)[C@@H](O)[C@@](C)(CO)C7CC[C@@]6(C)[C@]4(C)CC5)C(O)C(O)C3O)C(O)C2O)C(O)C(O)C1O (some centres not stated),NF-kB SEAP reporter activity,RAW-Dual [1]; [3],0.975
same,NF-kB SEAP reporter activity,RAW-Dual [1]; [4],1.12
CS(=O)(=O)N1CCN(Cc2cc3nc(-c4cccc5[nH]ncc45)nc(N4CCOCC4)c3s2)CC1,NF-kB SEAP reporter activity,RAW-Dual [1]; [3],1.77
same,NF-kB SEAP reporter activity,RAW-Dual [1]; [4],1.75
CS(=O)(=O)N1CCN(Cc2cc3nc(-c4cccc5[nH]ncc45)nc(N4CCOCC4)c3s2)CC1 (library stock concentration (final ~1000-fold dilution): 10 mM),NF-kB SEAP reporter activity,RAW-Dual [2]; agonist: LPS (TLR4) 0.1 ug/mL,1.87
same,NF-kB SEAP reporter activity,RAW-Dual [2]; [5],0.247
same,NF-kB SEAP reporter activity,RAW-Dual [2]; [6],1.02
same,NF-kB SEAP reporter activity,RAW-Dual [2]; [7],0.72
COc1ccccc1N1CCN(CCN2C(=O)CC3(CCCC3)CC2=O)CC1.Cl.Cl,NF-kB SEAP reporter activity,RAW-Dual [1]; [3],1.09
same,NF-kB SEAP reporter activity,RAW-Dual [1]; [4],1
COc1ccccc1N1CCN(CCN2C(=O)CC3(CCCC3)CC2=O)CC1.Cl.Cl (library stock concentration (final ~1000-fold dilution): 10 mM),NF-kB SEAP reporter activity,RAW-Dual [2]; agonist: LPS (TLR4) 0.1 ug/mL,1.35
same,NF-kB SEAP reporter activity,RAW-Dual [2]; [5],1.05
same,NF-kB SEAP reporter activity,RAW-Dual [2]; [6],0.87
same,NF-kB SEAP reporter activity,RAW-Dual [2]; [7],1.26
O=C(O)Cn1c2c(c3cc(F)ccc31)CN(C(=O)c1cccc3ccccc13)CC2 (library stock concentration (final ~1000-fold dilution): 10 mM),NF-kB SEAP reporter activity,RAW-Dual [2]; agonist: LPS (TLR4) 0.1 ug/mL,0.974
same,NF-kB SEAP reporter activity,RAW-Dual [2]; [5],0.982
same,NF-kB SEAP reporter activity,RAW-Dual [2]; [6],1.03
same,NF-kB SEAP reporter activity,RAW-Dual [2]; [7],0.899
O=C(O)Cn1c2c(c3cc(F)ccc31)CN(C(=O)c1cccc3ccccc13)CC2,NF-kB SEAP reporter activity,RAW-Dual [1]; [3],1.15
same,NF-kB SEAP reporter activity,RAW-Dual [1]; [4],1.09
Nc1nc(F)nc2c1ncn2C1OC(CO)C(O)C1O (configuration not stated),NF-kB SEAP reporter activity,RAW-Dual [1]; [3],0.92
same,NF-kB SEAP reporter activity,RAW-Dual [1]; [4],0.844
Nc1nc(F)nc2c1ncn2C1OC(CO)C(O)C1O (configuration not stated) (library stock concentration (final ~1000-fold dilution): 10 mM),NF-kB SEAP reporter activity,RAW-Dual [2]; agonist: LPS (TLR4) 0.1 ug/mL,1.1
same,NF-kB SEAP reporter activity,RAW-Dual [2]; [5],1.03
same,NF-kB SEAP reporter activity,RAW-Dual [2]; [6],1.06
same,NF-kB SEAP reporter activity,RAW-Dual [2]; [7],1.22
CCN(CCO)CCCC(C)Nc1ccnc2cc(Cl)ccc12.O=S(=O)(O)O (configuration not stated),NF-kB SEAP reporter activity,"RAW-Dual [1]; library stock concentration (final ~1000-fold dilution): 10 mM water, agonist: Imiquimod (TLR7) […]",0.389
same,NF-kB SEAP reporter activity,"RAW-Dual [1]; library stock concentration (final ~1000-fold dilution): 10 mM water, agonist: MPLA (TLR4) […]",1.3
CCN(CCO)CCCC(C)Nc1ccnc2cc(Cl)ccc12.O=S(=O)(O)O (configuration not stated) (library stock concentration (final ~1000-fold dilution): 10 mM water),NF-kB SEAP reporter activity,RAW-Dual [2]; agonist: LPS (TLR4) 0.1 ug/mL,1.41
same,NF-kB SEAP reporter activity,RAW-Dual [2]; [5],0.252
same,NF-kB SEAP reporter activity,RAW-Dual [2]; [6],0.864
same,NF-kB SEAP reporter activity,RAW-Dual [2]; [7],0.763
CC(=O)OC12COC1CC(O)C1(C)C(=O)C(O)C3=C(C)C(OC(=O)C(O)C(NC(=O)OC(C)(C)C)c4ccccc4)CC(O)(C(OC(=O)c4ccccc4)C21)C3(C)C.O.O.O (configuration not stated),NF-kB SEAP reporter activity,RAW-Dual [1]; [3],1.07
same,NF-kB SEAP reporter activity,RAW-Dual [1]; [4],1.23
CC(=O)OC12COC1CC(O)C1(C)C(=O)C(O)C3=C(C)C(OC(=O)C(O)C(NC(=O)OC(C)(C)C)c4ccccc4)CC(O)(C(OC(=O)c4ccccc4)C21)C3(C)C.O.O.O (configuration not stated) (library stock concentration (final ~1000-fold dilution): 10 mM),NF-kB SEAP reporter activity,RAW-Dual [2]; agonist: LPS (TLR4) 0.1 ug/mL,1.26
same,NF-kB SEAP reporter activity,RAW-Dual [2]; [5],0.91
same,NF-kB SEAP reporter activity,RAW-Dual [2]; [6],0.697
same,NF-kB SEAP reporter activity,RAW-Dual [2]; [7],0.713
COc1cccc2cc(-c3nc(C4CCC(C(=O)O)CC4)n4ncnc(N)c34)[nH]c12 (configuration not stated),NF-kB SEAP reporter activity,RAW-Dual [1]; [3],1.23
same,NF-kB SEAP reporter activity,RAW-Dual [1]; [4],1.25
COc1cccc2cc(-c3nc(C4CCC(C(=O)O)CC4)n4ncnc(N)c34)[nH]c12 (configuration not stated) (library stock concentration (final ~1000-fold dilution): 10 mM),NF-kB SEAP reporter activity,RAW-Dual [2]; agonist: LPS (TLR4) 0.1 ug/mL,1.48
same,NF-kB SEAP reporter activity,RAW-Dual [2]; [5],0.418
same,NF-kB SEAP reporter activity,RAW-Dual [2]; [6],0.513
same,NF-kB SEAP reporter activity,RAW-Dual [2]; [7],0.584
Nc1nc2cc(-c3ccc4ncc(C(=O)N5CCOCC5)n4c3)ccc2o1 (library stock concentration (final ~1000-fold dilution): 10 mM),NF-kB SEAP reporter activity,RAW-Dual [2]; agonist: LPS (TLR4) 0.1 ug/mL,0.841
same,NF-kB SEAP reporter activity,RAW-Dual [2]; [5],1.02
same,NF-kB SEAP reporter activity,RAW-Dual [2]; [6],0.774
same,NF-kB SEAP reporter activity,RAW-Dual [2]; [7],0.811
Nc1nc2cc(-c3ccc4ncc(C(=O)N5CCOCC5)n4c3)ccc2o1,NF-kB SEAP reporter activity,RAW-Dual [1]; [3],1.09
same,NF-kB SEAP reporter activity,RAW-Dual [1]; [4],1.09
CCC(C(=O)O)c1ccc(N2Cc3ccccc3C2=O)cc1 (configuration not stated),NF-kB SEAP reporter activity,RAW-Dual [1]; [4],1.06
CCC(C(=O)O)c1ccc(N2Cc3ccccc3C2=O)cc1 (configuration not stated) (library stock concentration (final ~1000-fold dilution): 10 mM),NF-kB SEAP reporter activity,RAW-Dual [2]; agonist: LPS (TLR4) 0.1 ug/mL,1.46
same,NF-kB SEAP reporter activity,RAW-Dual [2]; [5],0.943
same,NF-kB SEAP reporter activity,RAW-Dual [2]; [6],1.23
same,NF-kB SEAP reporter activity,RAW-Dual [2]; [7],1.1
CC1(C)OC2COC3(COS(N)(=O)=O)OC(C)(C)OC3C2O1 (configuration not stated) (library stock concentration (final ~1000-fold dilution): 10 mM),NF-kB SEAP reporter activity,RAW-Dual [2]; agonist: LPS (TLR4) 0.1 ug/mL,0.898
same,NF-kB SEAP reporter activity,RAW-Dual [2]; [5],1.01
same,NF-kB SEAP reporter activity,RAW-Dual [2]; [6],0.955
same,NF-kB SEAP reporter activity,RAW-Dual [2]; [7],1.12
CC1(C)OC2COC3(COS(N)(=O)=O)OC(C)(C)OC3C2O1 (configuration not stated),NF-kB SEAP reporter activity,RAW-Dual [1]; [3],0.928
same,NF-kB SEAP reporter activity,RAW-Dual [1]; [4],0.824

# Reference: the supplement of paper PMC10037445
